The record followed here is article PMC11808136, “Screening and identification of host signaling pathways for alleviating influenza-induced production of pro-inflammatory cytokines, IP-10, IL-8, and MCP-1, using a U937 cell-based influenza model” (Frontiers in Microbiology, 2025).

By IC50 is commonly meant the concentration at which inhibition is half-maximal. Lower therefore signals greater potency in that assay.

This test addresses T1, JAK2 (Homo sapiens, UniProt O60674).
T1 construct: purchased KinaseProfiler (Eurofin, Brussels, Belgium)
Put plainly: Cell-free kinase activity assay, JAK2. It is filed as biochemical. As to conditions: kinase in vitro.

T1 sequence (O60674 whole entry): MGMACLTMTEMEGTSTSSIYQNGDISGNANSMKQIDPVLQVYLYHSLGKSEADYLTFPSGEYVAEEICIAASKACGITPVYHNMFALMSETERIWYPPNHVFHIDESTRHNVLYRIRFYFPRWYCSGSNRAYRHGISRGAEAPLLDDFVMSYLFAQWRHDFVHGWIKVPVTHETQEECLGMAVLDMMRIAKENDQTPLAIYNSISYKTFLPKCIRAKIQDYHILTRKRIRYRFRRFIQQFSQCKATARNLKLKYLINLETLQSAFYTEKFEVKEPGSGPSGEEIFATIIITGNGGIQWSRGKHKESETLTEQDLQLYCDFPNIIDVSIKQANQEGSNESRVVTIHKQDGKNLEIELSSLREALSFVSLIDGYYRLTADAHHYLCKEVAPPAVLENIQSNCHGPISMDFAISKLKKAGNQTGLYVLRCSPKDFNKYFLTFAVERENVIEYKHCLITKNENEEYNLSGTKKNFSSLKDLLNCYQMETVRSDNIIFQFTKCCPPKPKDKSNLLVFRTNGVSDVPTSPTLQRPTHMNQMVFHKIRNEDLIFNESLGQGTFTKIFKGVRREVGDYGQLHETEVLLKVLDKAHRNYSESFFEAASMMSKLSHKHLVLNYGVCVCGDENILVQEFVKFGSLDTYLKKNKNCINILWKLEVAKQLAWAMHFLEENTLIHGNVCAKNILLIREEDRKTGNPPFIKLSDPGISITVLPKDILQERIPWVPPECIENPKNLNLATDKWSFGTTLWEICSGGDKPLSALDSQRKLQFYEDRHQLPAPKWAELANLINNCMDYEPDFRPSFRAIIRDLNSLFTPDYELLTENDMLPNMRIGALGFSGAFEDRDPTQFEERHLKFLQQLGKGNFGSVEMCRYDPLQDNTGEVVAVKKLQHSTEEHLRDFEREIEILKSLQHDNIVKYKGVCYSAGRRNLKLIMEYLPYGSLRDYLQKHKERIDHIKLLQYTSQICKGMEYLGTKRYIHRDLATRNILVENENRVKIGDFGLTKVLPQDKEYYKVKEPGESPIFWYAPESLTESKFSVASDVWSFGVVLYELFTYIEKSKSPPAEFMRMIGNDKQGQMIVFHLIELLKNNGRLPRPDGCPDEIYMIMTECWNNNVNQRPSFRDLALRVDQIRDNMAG

The compound `Cc1cc(Nc2nc(N[C@@H](C)c3ncc(F)cn3)ncc2Cl)n[nH]1` [AZD1480] returned an IC50 of under 200 nM. Compound `Cc1ccc(C(=O)Nc2ccc(CN3CCN(C)CC3)c(C(F)(F)F)c2)cc1C#Cc1cnc2cccnn12` [Ponatinib] yielded an IC50 of over 1000 nM.
